The values below come from PMC4336329 (PLoS ONE, 2015).

In all, about 310,000 compounds went through this assay and about 2,200 (0.71%) showed an effect of 50% or more. The effect is printed as a negative number. The list shows a part of the results.

For this test, the target named is human ether-à-go-go-related gene (hERG) potassium channel (human, UniProt Q12809). The test is described as follows: primary screen, population patch clamp on CHO cells stably expressing hERG.
Sequence of human ether-à-go-go-related gene (hERG) potassium channel (Q12809 whole entry, looked up): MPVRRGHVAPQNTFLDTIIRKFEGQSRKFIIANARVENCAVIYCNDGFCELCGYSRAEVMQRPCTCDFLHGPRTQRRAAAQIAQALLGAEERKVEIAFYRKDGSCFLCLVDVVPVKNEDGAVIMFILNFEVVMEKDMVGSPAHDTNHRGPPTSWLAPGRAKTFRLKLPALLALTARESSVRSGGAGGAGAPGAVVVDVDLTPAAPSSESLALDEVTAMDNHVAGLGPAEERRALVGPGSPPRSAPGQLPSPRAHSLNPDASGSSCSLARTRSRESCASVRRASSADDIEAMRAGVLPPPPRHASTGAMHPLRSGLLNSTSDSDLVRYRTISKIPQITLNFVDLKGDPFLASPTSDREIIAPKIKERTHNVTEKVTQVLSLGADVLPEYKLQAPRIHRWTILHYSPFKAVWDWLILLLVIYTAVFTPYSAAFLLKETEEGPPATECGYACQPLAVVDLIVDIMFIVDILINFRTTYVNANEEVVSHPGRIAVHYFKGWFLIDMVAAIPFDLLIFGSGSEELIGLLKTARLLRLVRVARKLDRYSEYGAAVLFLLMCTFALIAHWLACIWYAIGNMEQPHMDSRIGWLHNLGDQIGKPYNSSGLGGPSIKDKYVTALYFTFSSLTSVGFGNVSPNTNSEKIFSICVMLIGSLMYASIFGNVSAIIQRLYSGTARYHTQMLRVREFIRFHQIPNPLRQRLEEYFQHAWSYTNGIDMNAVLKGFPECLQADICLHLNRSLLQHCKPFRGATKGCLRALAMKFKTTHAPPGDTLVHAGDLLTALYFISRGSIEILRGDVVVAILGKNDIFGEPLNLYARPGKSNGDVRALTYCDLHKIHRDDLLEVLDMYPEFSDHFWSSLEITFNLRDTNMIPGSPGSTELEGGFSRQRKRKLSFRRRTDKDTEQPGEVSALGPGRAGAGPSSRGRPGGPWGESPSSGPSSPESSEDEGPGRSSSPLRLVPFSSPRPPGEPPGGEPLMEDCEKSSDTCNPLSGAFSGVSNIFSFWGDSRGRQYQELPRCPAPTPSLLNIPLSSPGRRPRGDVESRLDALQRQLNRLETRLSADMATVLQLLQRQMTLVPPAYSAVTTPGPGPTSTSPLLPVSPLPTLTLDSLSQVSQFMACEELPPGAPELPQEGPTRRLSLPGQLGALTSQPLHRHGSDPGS
`COc1ccc(S(=O)(=O)NC2CCCC2)cc1NC(C)=O`: the “hERG current change (%, negative = inhibition) at 1uM” value is given as 17.3%. With `Cc1csc(SCC(=O)NC2CCCC2)n1`, the “hERG current change (%, negative = inhibition) at 1uM” value came out at 10.9%. For `O=C(CCNS(=O)(=O)c1ccccc1)NNC(=O)c1csc(N2CCOCC2)n1` the value was 8.57%; for `O=C(COC(=O)/C=C/c1cccc(F)c1)NNC(=O)c1ccccc1`, 13.1%; for `COc1ccc(NC(C)=O)cc1NC(C)c1nc2sc(C)c(C)c2c(=O)[nH]1` (centres unmarked), 17%. As for `COc1ccccc1OCC(=O)Nc1nc2c(s1)CCCC2`, the figure is 14.5%; as for `COc1ccc(C2=C(O)C(C)N(c3ccccc3)C2=N)cc1OC` (centres unmarked), 11.2%; as for `Cc1ccc(NC(=O)CSc2nnnn2-c2ccc3c(c2)OCO3)cc1C`, 5.03%. For `C/C(=C/C(=O)NCc1ccccc1)C(=O)O` the value was 3.27%; for `COc1ccc(CCNCc2c(OC)ccc3ccccc23)cc1OC.Cl`, 7.47%.

For the compound `O=C(O)CCC(=O)Nc1ccc(S(=O)(=O)N2CCCC2)cc1`, the “hERG current change (%, negative = inhibition) at 1uM” value was 7.51%. For `Cc1ccc(-c2nnc(SCC(=O)OC(C)C)n2N)cc1` the value was 14.8%; for `CC1CCCC(NC(=O)COC(=O)c2ccc3ncsc3c2)C1C` (centres unmarked), 3.58%; for `Cc1ccc(C)n1-c1nnc(N2CCC(C(=O)N3CCN(C)CC3)CC2)s1`, 8.88%. Regarding `CCN(CC)C(=O)c1cccc(NC(=O)c2ccc3c(=O)n4c(nc3c2)CCC4)c1`, the “hERG current change (%, negative = inhibition) at 1uM” value is recorded as 15.8%. As for `CCOC(=O)c1cc(-c2ccccc2)n(CC(=O)N2CCCC2)c1C`, the figure is 2.09%; as for `CCC(=O)OCc1cc(=O)oc2ccc3ccccc3c12`, 21.4%. Regarding `O=C(OC1CCOC1=O)c1cc(S(=O)(=O)N2CCOCC2)c(Cl)cc1Cl` (centres unmarked), the “hERG current change (%, negative = inhibition) at 1uM” value is given as 1.09%. For `Cc1cc(C)cc(N(CCC#N)C(=O)CSc2ncnc3sccc23)c1` the value was -6.93%. Take `O=C(/C=C/c1ccccc1)NCCS(=O)(=O)N1CCN(c2ccccc2F)CC1`: the “hERG current change (%, negative = inhibition) at 1uM” value turned out to be 8.86%. Regarding `Cc1nn(-c2ccccc2)c(C)c1/C=C/C(=O)OCC(=O)Nc1ccc(C(N)=O)cc1`, the “hERG current change (%, negative = inhibition) at 1uM” value is 10.6%. As to `CNc1c(N)n(Cc2ccccc2)c(=O)[nH]c1=O`, the “hERG current change (%, negative = inhibition) at 1uM” value is reported as 14.8%. As to `CN(C)S(=O)(=O)c1ccc(N2CCCC2)c(C(=O)Nc2nc(-c3ccc(F)c(F)c3)cs2)c1`, the “hERG current change (%, negative = inhibition) at 1uM” value was 16.5%. In the case of `COc1ccc(N=c2oc3cc(O)ccc3cc2C(=O)NCC2CCCO2)c(OC)c1` (centres unmarked), the “hERG current change (%, negative = inhibition) at 1uM” value is recorded as 4.72%. On to `COc1ccc2c3c([nH]c2c1)C(C)N(CCC(=O)NN)CC3` (centres unmarked), for which the “hERG current change (%, negative = inhibition) at 1uM” value is 13.9%. For `CCN(CC)S(=O)(=O)c1ccc(NC(=O)c2cnccn2)cc1`, the “hERG current change (%, negative = inhibition) at 1uM” value amounted to 13%. Take `O=c1oc2cc(OCc3nn[nH]n3)ccc2c2c1CCCC2`: the “hERG current change (%, negative = inhibition) at 1uM” value stood at 10.9%. Turning to `O=C(Nc1ccc(Br)cc1F)C1CCCN(S(=O)(=O)c2cnc[nH]2)C1` (centres unmarked), the “hERG current change (%, negative = inhibition) at 1uM” value came out at 7.92%.

With `C=CCn1c(CC#N)nnc1N1CCOCC1.Cl`, the “hERG current change (%, negative = inhibition) at 1uM” value is listed as 0.494%. On to `O=C(COC(=O)c1ccc(S(=O)(=O)Nc2ccccc2)cc1)NCc1ccco1`, for which the “hERG current change (%, negative = inhibition) at 1uM” value was 3.31%.

In the case of `CCCC(=O)NNC(=O)c1c(O)c2ccccc2[nH]c1=O`, the “hERG current change (%, negative = inhibition) at 1uM” value came out at 14.4%.

Take `O=C(CCn1c(=S)oc2ccccc21)Nc1cc([N+](=O)[O-])ccc1F`: the “hERG current change (%, negative = inhibition) at 1uM” value came to 17.7%. For `COc1ccc(C2CC23N=C(c2ccccc2)OC3=O)cc1` (centres unmarked) the value was 9.65%; for `Cc1ccc(-c2ccc([C@H]3[C@H]4C=CC[C@@H](C)[C@@H]4C(=O)N3Cc3ccccc3)c(F)c2)cc1`, 5.29%; for `O=S(=O)(/C=C/c1ccccc1)NCCc1ccccn1`, 7.57%.

As to `O=C(CCCSc1nc2ccccc2[nH]1)N1CCN(c2ccc([N+](=O)[O-])cc2)CC1`, the “hERG current change (%, negative = inhibition) at 1uM” value is -86.9%. Consider `COc1ccc2nc(SCC(=O)NC(C)(C)C)[nH]c2c1`, for which the “hERG current change (%, negative = inhibition) at 1uM” value turned out to be 11.8%. As to `O=S1(=O)[C@H]2C[C@@H]3C=C[C@]2(CN1Cc1ccc(C(F)(F)F)cc1)O3`, the “hERG current change (%, negative = inhibition) at 1uM” value stood at 4.34%. Consider `c1ccc(CCc2nn3c(Cc4ccccc4)nnc3s2)cc1`, for which the “hERG current change (%, negative = inhibition) at 1uM” value is listed as 1.64%. `Cc1sc(-n2c(C)cc(/C=N/n3cnnc3)c2C)c(C#N)c1C`: the “hERG current change (%, negative = inhibition) at 1uM” value was -0.338%. In the case of `Cn1c(SCC(=O)c2ccc3c(c2)Cc2ccccc2-3)nnc1-c1cccc(N)c1`, the “hERG current change (%, negative = inhibition) at 1uM” value amounted to 6.59%. Turning to `CC1CCN(C(=O)c2ccc3c(c2NCCO)C(=O)c2ccccc2C3=O)CC1`, the “hERG current change (%, negative = inhibition) at 1uM” value is given as 13.8%. As for `O=C1CCN(CCc2ccccc2)CCN1[C@H](CSc1ccccc1)c1ccccc1`, the figure is -72.2%. Take `NC(=O)C1=C[C@@H](c2ccccc2)C[C@@H](OCc2ccc(CO)cc2)O1`: the “hERG current change (%, negative = inhibition) at 1uM” value is recorded as 3.7%. As to `CCc1ccc(S(=O)(=O)/N=C2/C=C(Sc3ncn[nH]3)C(=O)c3ccccc32)cc1`, the “hERG current change (%, negative = inhibition) at 1uM” value was determined as 19.3%. `CC1(C)Cc2nc3sc4c(NCCO)ncnc4c3cc2CS1`: the “hERG current change (%, negative = inhibition) at 1uM” value is given as 12.7%. On to `O=C(NCC1CCOCC1)C1CCC(=O)N(Cc2cccc(C(F)(F)F)c2)C1` (centres unmarked), for which the “hERG current change (%, negative = inhibition) at 1uM” value was 15.2%. On to `Cn1c(SCC(=O)N/N=C/c2ccc(O)c(O)c2)nc2ccccc21`, for which the “hERG current change (%, negative = inhibition) at 1uM” value came out at 7.04%. As for `COC(=O)c1ccc(NC(=O)C2CC2)o1`, the figure is 15.4%; as for `COc1ccc(S(=O)(=O)N2CCCC2C(=O)Nc2nc3c(s2)CCCC3)cc1` (centres unmarked), 10%; as for `Cc1ccc(C(=O)Nc2cccc(C(=O)O)c2)cc1S(=O)(=O)N1CCOCC1`, 11.8%. For the compound `CC(=O)c1cccc(OCC(=O)N2CCN(CC(=O)Nc3cccc(F)c3)CC2)c1`, the “hERG current change (%, negative = inhibition) at 1uM” value is -6.24%. Turning to `COCCCn1c(=N)c(C(=O)NC2CCCCC2)cc2c(=O)n3ccccc3nc21`, the “hERG current change (%, negative = inhibition) at 1uM” value is given as -81.6%.

Regarding `COc1ccc(OCCCC(=O)Nc2cccc(SC)c2)cc1`, the “hERG current change (%, negative = inhibition) at 1uM” value came out at 10.7%.

With `COc1ccc(OCCNC2CCCC2)cc1`, the “hERG current change (%, negative = inhibition) at 1uM” value turned out to be 9.54%. For `COc1ccc(C)cc1NC(=O)CN1CCN(C/C=C/c2ccccc2)CC1` the value was -45.2%; for `Cc1cc(CC(C)C)n(-c2nc3ccccc3c(=O)n2OCc2ccccc2)n1`, 8.84%; for `CC1CC(=O)N(c2ccc(NCc3ccc(Cl)cc3)c([N+](=O)[O-])c2)C1=O` (centres unmarked), 8.91%. In the case of `CCn1nc(C(=O)OC2CCOC2=O)c2ccccc2c1=O` (centres unmarked), the “hERG current change (%, negative = inhibition) at 1uM” value is listed as 9.55%.

For the compound `CCCC(C)C(=O)Nc1ccncc1` (centres unmarked), the “hERG current change (%, negative = inhibition) at 1uM” value came to 10.5%. As to `CC(=O)Nc1ccc2c(CSc3nncs3)cc(=O)oc2c1`, the “hERG current change (%, negative = inhibition) at 1uM” value is -6.6%. For `CCCSC1=C(C#N)C(c2ccc(Cl)cc2Cl)CC(=O)N1` (centres unmarked) the value was 11.8%.

In the case of `CCSCc1nc(N)nc(NCCc2ccccc2)n1`, the “hERG current change (%, negative = inhibition) at 1uM” value is listed as 13.2%.

Consider `O=Cc1ccc(N2CCCC2)c([N+](=O)[O-])c1`, for which the “hERG current change (%, negative = inhibition) at 1uM” value is listed as 13.7%. Consider `CN(C)CC(=O)c1c[nH]c2ccccc12`, for which the “hERG current change (%, negative = inhibition) at 1uM” value stood at 9.19%. With `COCCNC(=O)COc1ccc(Nc2ccccc2)cc1`, the “hERG current change (%, negative = inhibition) at 1uM” value amounted to 1.8%.

`COc1ccccc1N1CCN(CC(O)c2ccc3cc[nH]c3c2)CC1` (centres unmarked): the “hERG current change (%, negative = inhibition) at 1uM” value is given as -50%. For `CCc1noc(C)c1C(=O)OCC(=O)N(CCOC)c1c(N)n(Cc2ccccc2)c(=O)[nH]c1=O`, the “hERG current change (%, negative = inhibition) at 1uM” value was found to be 19.4%. For `CC(NS(=O)(=O)OCC(Cl)(Cl)Cl)c1ccc(Br)cc1` (centres unmarked) the value was 2.61%; for `Cc1ccc(NC(=O)CCN2C(=O)C3C4CCC(C4)C3C2=O)cc1Cl` (centres unmarked), 7%; for `COc1cccc(NC2SC(=O)N(c3ccccc3)C2=O)c1` (centres unmarked), 11.3%. For the compound `Cc1ccc(C)c(N2CCN(C(=O)CN(C)S(=O)(=O)c3ccc4c(c3)CCC(=O)N4)CC2)c1`, the “hERG current change (%, negative = inhibition) at 1uM” value came to 6.28%. Turning to `COC(=O)N/N=C/c1cn(CCOc2ccccc2OC)c2ccccc12`, the “hERG current change (%, negative = inhibition) at 1uM” value worked out at 5.38%.

Regarding `COCCn1c(C)cc(/C=C2/SC(=O)N(C(C)C(=O)OC)C2=O)c1C` (centres unmarked), the “hERG current change (%, negative = inhibition) at 1uM” value is listed as -1.19%. `CCc1nc2cc(C)nn2c2nc3ccccc3n12`: the “hERG current change (%, negative = inhibition) at 1uM” value is on record as -15.4%. As for `Cc1cc(S(=O)(=O)NCC(c2ccccc2)c2ccccc2)ccc1-n1cnnn1`, the “hERG current change (%, negative = inhibition) at 1uM” value is on record as 4.03%. As to `O=[N+]([O-])c1cc(-c2nc(-c3ccncc3)no2)ccc1Cl`, the “hERG current change (%, negative = inhibition) at 1uM” value was 13.4%. Turning to `CCCCc1nc(N2CCN(C(=O)c3ccco3)CC2)c(C#N)c2c1CCCC2`, the “hERG current change (%, negative = inhibition) at 1uM” value was 5.01%. For `COc1ccc(NS(=O)(=O)c2cccc(C(=O)N(C)Cc3cccs3)c2)cc1` the value was 5.16%; for `CC(=O)NC(Cc1c[nH]c2ccccc12)C(=O)N/N=C/c1ccccc1` (centres unmarked), 14.7%. Turning to `O=C(NCc1ccc(Cl)cc1)c1ccc2ccccc2n1`, the “hERG current change (%, negative = inhibition) at 1uM” value is reported as 14.7%. `CC1(C)Oc2ccc(C(=O)NNC(=O)Nc3ccccc3)cc2NC1=O`: the “hERG current change (%, negative = inhibition) at 1uM” value was determined as 11.3%.

Take `COc1ccc(OCc2cc(C(=O)N(C)Cc3nnc(C)o3)no2)c(Cl)c1`: the “hERG current change (%, negative = inhibition) at 1uM” value is recorded as 12.8%.

For the compound `O=C1NC(=O)C(Nc2cccc3ccccc23)S1` (centres unmarked), the “hERG current change (%, negative = inhibition) at 1uM” value came out at 10.2%. Turning to `Cc1cc(=O)oc2cc(OCC3CC(c4ccc(N(C)C)cc4)=NO3)ccc12` (centres unmarked), the “hERG current change (%, negative = inhibition) at 1uM” value is listed as 10.1%. For the compound `CN(Cc1ccccc1)C(=O)CCS(=O)(=O)c1ccc2c(c1)NC(=O)CS2`, the “hERG current change (%, negative = inhibition) at 1uM” value came out at 15%. For `COC(=O)c1c(N2C(=O)[C@H]3[C@@H](C2=O)[C@]2(C(=O)Nc4c(C)cccc42)N2CCC[C@@H]32)sc(C)c1C` the value was 12.2%; for `COc1cc(C(=O)NCCNc2nc3c(C)c(C)ccc3cc2C#N)cc(OC)c1OC`, 11.4%. Regarding `COc1ccccc1COc1ccc2c(C)c(CC(=O)O)c(=O)oc2c1C`, the “hERG current change (%, negative = inhibition) at 1uM” value was found to be 19.7%.
